# In the supplement of paper PMC3334620:
# In all, about 33,000 sequences were measured (“E-score (-0.5 to 0.5)”: median about -0.053, highest 2% from about 0.37 on). The list shows a part of the results.
# Target: Hap1 (UniProt P0CE41)
# Experiment: PBM E-score (8-mer binding enrichment) (E-score (-0.5 to 0.5)); higher = stronger / more preferred TF binding; most listed sequences are background and not binding sites
# Details: protein concentration: 200 nM; construct: GST-DNA-binding domain
# Procedure: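 Universal 'all 10-mer' protein binding microarrays (Agilent AMADID 015681) probed with GST-tagged S. cerevisiae TFs (full-length or DBD) made by in vitro transcription/translation (PURExpress), about 100-200 nM. Bound TF was detected with fluorescent anti-GST. Each ungapped 8-mer (which stands for itself and its reverse complement) is scored by the PBM enrichment score (E-score), a modified Wilcoxon-Mann-Whitney statistic from -0.5 to +0.5, computed with the Universal PBM Analysis Suite. Scale: above 0.35 generally sequence-specific binding.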
# UniProt P0CE41, sequence (P0CE41 whole entry): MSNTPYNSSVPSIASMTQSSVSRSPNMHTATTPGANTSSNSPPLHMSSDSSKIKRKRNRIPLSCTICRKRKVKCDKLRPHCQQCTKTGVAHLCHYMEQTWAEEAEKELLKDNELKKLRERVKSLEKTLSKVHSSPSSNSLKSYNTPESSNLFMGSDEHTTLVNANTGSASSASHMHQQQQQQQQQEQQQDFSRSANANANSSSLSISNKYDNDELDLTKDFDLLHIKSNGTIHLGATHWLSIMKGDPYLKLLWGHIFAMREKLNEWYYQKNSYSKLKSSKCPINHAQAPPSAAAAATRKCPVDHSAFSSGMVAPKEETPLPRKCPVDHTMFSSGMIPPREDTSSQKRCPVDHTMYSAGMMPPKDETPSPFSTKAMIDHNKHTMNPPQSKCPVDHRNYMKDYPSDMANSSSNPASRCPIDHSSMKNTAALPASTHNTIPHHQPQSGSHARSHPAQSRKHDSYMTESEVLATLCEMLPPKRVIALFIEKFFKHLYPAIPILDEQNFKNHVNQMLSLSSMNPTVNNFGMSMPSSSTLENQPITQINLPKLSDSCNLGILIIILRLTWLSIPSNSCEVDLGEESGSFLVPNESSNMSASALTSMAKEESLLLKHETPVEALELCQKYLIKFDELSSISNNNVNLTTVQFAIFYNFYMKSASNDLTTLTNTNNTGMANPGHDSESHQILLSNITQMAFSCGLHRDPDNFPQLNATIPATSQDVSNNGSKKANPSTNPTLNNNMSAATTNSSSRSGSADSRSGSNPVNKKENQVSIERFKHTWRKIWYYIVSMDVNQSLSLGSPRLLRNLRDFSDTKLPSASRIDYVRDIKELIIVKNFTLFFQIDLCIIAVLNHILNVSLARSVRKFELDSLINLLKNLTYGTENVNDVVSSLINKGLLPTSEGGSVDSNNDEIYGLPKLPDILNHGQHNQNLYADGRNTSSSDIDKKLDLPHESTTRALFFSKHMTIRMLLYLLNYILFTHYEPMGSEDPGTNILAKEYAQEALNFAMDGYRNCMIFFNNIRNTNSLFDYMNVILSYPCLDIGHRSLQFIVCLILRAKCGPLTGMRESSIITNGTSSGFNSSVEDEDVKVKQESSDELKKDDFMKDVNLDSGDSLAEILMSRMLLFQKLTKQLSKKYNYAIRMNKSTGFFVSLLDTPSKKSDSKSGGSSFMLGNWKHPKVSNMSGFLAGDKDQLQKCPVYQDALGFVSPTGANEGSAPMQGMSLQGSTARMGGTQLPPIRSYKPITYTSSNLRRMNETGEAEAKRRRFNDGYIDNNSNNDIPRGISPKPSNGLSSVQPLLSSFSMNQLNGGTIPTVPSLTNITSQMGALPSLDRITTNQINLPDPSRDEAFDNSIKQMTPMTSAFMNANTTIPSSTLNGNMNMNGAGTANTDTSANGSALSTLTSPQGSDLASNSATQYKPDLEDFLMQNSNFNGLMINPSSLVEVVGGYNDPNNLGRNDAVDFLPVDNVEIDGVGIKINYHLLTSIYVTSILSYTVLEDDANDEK
row,Sequence,PBM E-score
1,GCAGTACC,0.114
2,ATCTGTAG,-0.107
3,GCCACAGC,-0.111
4,TACACGGA,0.224
5,AACTCAAA,-0.17
6,AAGCGACG,0.0809
7,CGTAAGCC,0.059
8,GTAGGTGA,-0.236
9,TCAGATGA,-0.204
10,AGTAATAG,-0.264
11,CGATGGCC,-0.0822
12,CTCGACTA,-0.18
13,AGGGGCCA,-0.179
14,CACATCGC,0.0343
15,AAAACGTC,-0.0353
16,AAAGCCAC,0.0488
17,AGGCCCGC,0.146
18,GATAGTAA,0.105
19,GTCAAAAC,0.0364
20,TATGTACA,-0.124
21,CCCACTAG,-0.234
22,GTGAGCTA,-0.237
23,TGCATCAA,-0.205
24,ATATAAAG,-0.0339
25,GGCGCATA,0.0763

row,Sequence,PBM E-score
1,CAAGACCG,0.186
2,ACTGCCTC,-0.00435
3,CATGAGAC,-0.0275
4,CTCTGAAG,-0.11
5,ATCATCCA,-0.0967
6,TGGCCTAA,-0.233
7,AACCGTCT,-0.00355
8,TGGCATAA,-0.164
9,CGACATAG,-0.127
10,TCCTGCAA,-0.144
11,CGTACGCA,-0.115
12,GGGGCGAC,-0.0967
13,TGACTGCA,-0.372
14,CTGGAGAC,-0.151
15,AAAAATTG,0.0279
16,AAAGGACG,-0.0881
17,CCGAAGTA,0.365
18,AGTTTTAT,-0.0975
19,CGCCATAC,-0.0654
20,TAGAAGAA,-0.0798
21,AATCAACT,0.0757
22,CAAATAAC,0.0155
23,AACCATTC,-0.1
24,CAATGCCA,-0.162
25,CGTTCTTA,0.108

row,Sequence,PBM E-score
1,ACATCGCC,0.18
2,CACTGGCG,-0.258
3,GGGCCTAC,0.00914
4,ATGTCCCG,0.234
5,GCACCACC,0.0604
6,CCTACAAA,-0.0726
7,ACTGTGCT,-0.132
8,ACCCGAGA,0.342
9,AGACCCGG,0.355
10,CGGTGAGA,0.12
11,CAATACAC,-0.167
12,GTGTTACA,-0.145
13,AAACGCTA,-0.194
14,GACGACAA,0.0017
15,AGGCGATA,0.119
16,GCCGTAGC,0.171
17,CGTCAGAG,-0.119
18,CTATTAAG,-0.172
19,AGCCGCCA,0.0907
20,TCACGGAA,0.329
21,AAGCATCC,-0.0729
22,CGGGCTCA,0.149
23,TATCAATA,-0.243
24,AACCACAC,0.0127
25,ATTGGAAA,-0.113

row,Sequence,PBM E-score
1,AGTAAAAT,-0.196
2,GCCTAACA,-0.0843
3,CAATGCAA,-0.186
4,GTACCTTA,-0.0597
5,CGGAGACC,0.349
6,CTGACAGA,-0.0898
7,CAAATGTG,0.0726
8,AAGTGAAC,-0.164
9,AGGGAGAT,-0.133
10,ACAAAAGC,0.0095
11,GTGCTCCA,-0.206
12,ATGATACC,0.132
13,AACGCTGC,-0.161
14,GCTCGTAA,-0.117
15,GCCACTAA,-0.158
16,ACTCGGCA,0.232
17,GCACACAA,-0.0118
18,AAGTGTCA,-0.299
19,AAGTAAAA,-0.142
20,AATCCAAG,-0.173
21,TCCGGACA,0.444
22,TACCTATA,-0.22
23,GTTTAATA,-0.171
24,ACTGACTA,-0.232
25,AAGCCGAA,0.334

row,Sequence,PBM E-score
1,ACCTCTAT,-0.132
2,CCGTACCC,0.0474
3,CGCCGCCA,0.146
4,AAAACCTA,-0.078
5,GGAACGCC,0.108
6,ACGGCCTG,-0.0121
7,CCACCTGA,0.014
8,AACACCGC,0.278
9,AAAATCAA,-0.0934
10,ATCACTAC,-0.187
11,TGTCTTAA,-0.0673
12,AGTTCGGA,0.366
13,ATTTGCAA,-0.11
14,GTCACTCA,-0.0768
15,CAGGCGGA,0.174
16,TAAAGAGA,-0.0182
17,ACTGCGTG,-0.275
18,GCAATCTA,0.00488
19,GCAGCTCA,-0.0752
20,CAGCGATC,0.0561
21,TGATAACA,-0.166
22,AGGTCGCA,0.101
23,AGGAGGGA,-0.105
24,GTTTCAAA,-0.165
25,GACACCAC,0.0232

row,Sequence,PBM E-score
1,AGATAAAT,0.0771
2,ACGGCAGC,0.0348
3,CGTAGTGA,-0.0696
4,ACATACTC,-0.129
5,AATGTAGC,0.0138
6,ACAGAGAT,-0.186
7,CACGCACG,0.0457
8,ATTGGGTG,0.0595
9,ATTTTGCC,-0.0764
10,CATCGTGG,-0.175
11,ACCGTGGG,0.088
12,TGCAGTAA,-0.0801
13,GTCCGGAA,0.416
14,ACTAGGCA,-0.195
15,AATATCTC,0.205
16,ATATTGCG,0.185
17,ACTCATTA,-0.00215
18,ACAGAGCA,-0.129
19,GTCCTCGA,-0.163
20,AGCAACAA,-0.112
21,ACGGTGAT,0.125
22,CAACGCGC,0.00913
23,ATTTGATC,0.0595
24,CGCCTCAG,0.0106
25,AATACCCC,0.314

row,Sequence,PBM E-score
1,CCTAGAAC,-0.126
2,AAAACCAG,-0.166
3,ATGGAATA,-0.0111
4,CCTATCTA,-0.233
5,ATCCGTCG,0.225
6,TAATCCCA,0.127
7,GATTGGAC,-0.108
8,CTGGTCTC,-0.234
9,GAACTGAC,0.0329
10,GCAACCAC,-0.0859
11,ACCCATTG,-0.119
12,ACGTTGCC,-0.122
13,CCACTAAA,-0.0762
14,ACAACGCA,-0.115
15,AGTTGGAG,-0.143
16,GCTCATGA,-0.121
17,GAGGGGTA,0.0493
18,AGAGCGAA,-0.0697
19,CATTAGAC,-0.142
20,TATAAATA,0.195
21,GGGTTTAC,0.281
22,ATACGCCG,0.263
